Experimental data: PubChem BioAssay AID651820 (National Center for Advancing Translational Sciences (NCATS), 2012)
The whole screen tested about 340,000 compounds, of which about 12,000 (3.5%) were called active. Inconclusive means that the source gave no clear call. Such entries were picked first, then a sample of the others. Calls come from the whole dose curve; as a rule, active = well fitted inhibition curve with a large enough effect; inconclusive = small, poorly fitted or top-dose-only effect, or another doubt; inactive = no such curve, though single readings can be large or run the other way. No potency is given beside an inconclusive call; the fits are too rough.
% is set by controls: 0 for no effect and ±100 for the full control effect; potency is the fitted concentration of half-maximal effect; tags give direction and shape of the fitted curve.

Assay: qHTS Assay for Inhibitors of Hepatitis C Virus (HCV)
Settings: Huh7.5.1 HCVcc-Cre (HCVcc is cell-culture hepatitis C virus) infection, luciferase reporter, 44 h; activity change, negative = inhibition: at 41.8 µM (top of the series) unless noted
In short: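 Antiviral activity was scored by luciferase reporter output from cells infected with HCVcc-Cre (~0.5 moi) in presence of compound, 44 h infection period, cells seeded 1,000/well 4 h prior.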
With CC(=O)Nc1ccc(SC[C@H](C)CN2CC[C@H](C(C)(C)C)CCC2=O)cc1 the Potency was inconclusive [inhibitor, single point]. In the case of CCOC(=O)Nc1cc2c(cc1C(C)=O)OCO2, the Potency is reported as inconclusive [inhibitor, single point]. In the case of CCOC(=O)Cc1csc(NC(=O)COc2ccc(N(C)S(=O)(=O)c3cccs3)cc2)n1, the Potency is reported as inconclusive [inhibitor, partial curve]. For CC1CCC(NC(=O)c2ccc3c(c2)OCO3)CC1 (configuration not stated), the “activity change, negative = inhibition” value was inactive: -8.2%. For CSc1ccc(-c2sc(Nc3cccc4ccccc34)n[n+]2-c2ccccc2)cc1, the Potency was active: 8.91 µM. With COc1ccc2nc(Nc3nc(CSc4nc5ccccc5[nH]4)cc(=O)[nH]3)nc(C)c2c1 the Potency was active: 14.1 µM. With COc1ccccc1N1CCN(C(=O)CSc2ccccc2)CC1 the “activity change, negative = inhibition” value was inactive: 5.72%. With BrC(=C\c1ccccc1)/C=N/Nc1nc2ccccc2[nH]1 the Potency was inconclusive [inhibitor, single point]. For CCC1CCCCN1CC(=O)Nc1cc(C)nn1-c1nc(C)cc(C)n1 (configuration not stated), the Potency was inconclusive [inhibitor, partial curve]. With CCCCCOC(=O)c1[nH]c2c(c1C)C(=O)C(C(=O)OC)C(C)C2 (configuration not stated) the Potency was inconclusive [inhibitor, partial curve, poor fit]. With CCN(CC)S(=O)(=O)c1ccc(C)c(NC(=O)COC(=O)c2ccc(C)c(S(=O)(=O)N3CCOCC3)c2)c1 the “activity change, negative = inhibition” value was inactive: 3.02%. In the case of COc1ccc(-c2cn[nH]c2-c2ccc(OCc3ccccc3)cc2O)cc1OC, the Potency is reported as inconclusive [inhibitor, single point]. For O=C(CSc1nc2ccc(Nc3nc(N4CCOCC4)nc(N4CCOCC4)n3)cc2s1)Nc1ccccc1F, the Potency was inconclusive [inhibitor, partial curve]. In the case of COc1ccc(Cn2c(=O)[nH]c3cc(C(=O)NCCCN4CCCC4)ccc3c2=O)cc1, the Potency is reported as inconclusive [inhibitor, single point]. In the case of N#Cc1c(C(F)(F)F)cc(-c2cccc(Cl)c2)[nH]c1=O, the “activity change, negative = inhibition” value is reported as inactive: 18.2%. For CCn1cc(CNCc2cn[nH]c2-c2cc3ccccc3o2)cn1, the Potency was inconclusive [inhibitor, single point]. For O=C(CSc1nc(-c2ccc(F)cc2)cs1)Nc1ccccn1, the Potency was inconclusive [inhibitor, single point]. In the case of CCN(CC)S(=O)(=O)c1ccc(N2CCCC2)c(NC(=O)c2nn(C)c(=O)c3ccccc23)c1, the Potency is reported as inconclusive [inhibitor, partial curve]. With CCOc1ccccc1NC(=O)c1ccc(S(=O)(=O)N2CCOCC2)cc1 the Potency was inconclusive [inhibitor, single point]. In the case of CN1CCN(S(=O)(=O)c2ccc(CNC(=O)c3ccccc3)s2)CC1, the “activity change, negative = inhibition” value is reported as inactive: -0.997%. With Cc1cccc(NC(=O)c2cnc3scc(C)n3c2=O)c1 the “activity change, negative = inhibition” value was inactive: 6.11%. For COc1ccc(NC(=O)CSCC(=O)N(C)CC(=O)Nc2c(C)cccc2C)cc1, the “activity change, negative = inhibition” value was inactive: 5.86%. In the case of CC(=O)Nc1cc(NC(C)=O)cc(C(=O)OCC(=O)c2ccc3c(c2)NC(=O)CO3)c1, the Potency is reported as inconclusive [inhibitor, partial curve]. In the case of COc1cc2ccccc2cc1C(=O)Nc1ccc(C)cn1, the Potency is reported as inconclusive [inhibitor, partial curve]. With CCOC(=O)/C=c1\s/c(=C\c2c(OC)ccc3ccccc23)c(=O)n1CC(=O)NCC1CCCO1 (configuration not stated) the Potency was inconclusive [inhibitor, full curve]. In the case of CCOC(=O)c1ccc(NC(=O)c2c(N)n(C)c(=O)n(C)c2=O)cc1, the Potency is reported as inconclusive [inhibitor, single point]. With Cc1cccc(NC(=S)NCc2cccn2C)c1 the Potency was inconclusive [inhibitor, full curve, poor fit]. For Cc1ccc2cc3cc(C(=O)N(CC(=O)NC4CCCC4)c4cccc(C)c4C)sc3nc2c1, the Potency was inconclusive [inhibitor, partial curve]. For CCc1ccc2c(CN3CCN(S(=O)(=O)c4cccs4)CC3)cc(=O)oc2c1, the Potency was inconclusive [inhibitor, partial curve]. With CCOc1ccc(-c2nc(CSc3nnc(N)s3)cs2)cc1OC the Potency was inconclusive [inhibitor, partial curve]. For CCCCCn1c(C(C)NC(=O)CCC)nc2ccccc21 (configuration not stated), the Potency was inconclusive [inhibitor, single point]. In the case of FC(F)(F)c1cc(-c2ccccc2)nc2nc(N3CCOCC3)sc12, the Potency is reported as inconclusive [inhibitor, full curve]. For COc1ccc(CN=C(NS(=O)(=O)c2cccs2)SC)cc1, the Potency was inconclusive [inhibitor, partial curve]. With Cc1ccc(CNC(=O)c2cc(-c3ccccc3)nn2Cc2cc(C)no2)cc1 the Potency was inconclusive [inhibitor, partial curve]. With CCN(CC)c1ccc(NC(=O)CNCc2ccccc2Cl)c(C)c1 the “activity change, negative = inhibition” value was inactive: -29.1%. With Cc1c(C(=O)Nc2ccncc2)sc2nc(-c3ccc(F)cc3)cn12 the Potency was active: 10 µM. In the case of Cc1ccccc1Oc1ccc2c(c1)[C@@H]1C[C@H](N(C)C(=O)Nc3cc(Cl)cc(Cl)c3)[C@H]([C@H](C)O)C(=O)N1CC2, the Potency is reported as inconclusive [inhibitor, single point]. With Cc1occc1-c1nnc(SCC(=O)NC2CC2)n1C the “activity change, negative = inhibition” value was inactive: 9.41%. For CCOC(=O)N1CCN(C(=O)C(CC(C)C)NC(=O)C2CCCCC2)CC1 (configuration not stated), the Potency was inconclusive [inhibitor, single point]. For NC(=O)CC(NC(=O)c1ccccc1)c1ccc(N2CCN(c3ccccc3)CC2)c([N+](=O)[O-])c1 (configuration not stated), the Potency was inconclusive [inhibitor, single point]. With Cc1ccc(S(=O)(=O)N(C)c2ccc(C(=O)Nc3ccccc3C(=O)N3CCOCC3)cc2)cc1 the “activity change, negative = inhibition” value was inactive: 6.49%. For O=S(=O)(c1ccccc1)N1CCN(S(=O)(=O)c2ccc(F)cc2)CC1, the “activity change, negative = inhibition” value was inactive: 10.2%. With CN1CCN(c2ccc(NC(=O)c3ccc(Oc4ccccc4)cc3)cc2)CC1 the Potency was inconclusive [inhibitor, partial curve]. In the case of COc1cccc(C(=O)Nc2ccc3c(c2)C(=O)c2ccccc2C3=O)c1, the Potency is reported as inconclusive [inhibitor, single point]. For Cc1cccc(OCC(O)CN2CCN(CCN3C(=O)c4cccc5cccc(c45)C3=O)CC2)c1C (configuration not stated), the Potency was active: 8.91 µM. In the case of CN(Cc1ccccc1)C(=O)c1cc(-c2ccc(Br)cc2)on1, the Potency is reported as inconclusive [inhibitor, single point]. With O=C1/C(=C/c2ccco2)SC(=S)N1c1cccnc1 the Potency was inconclusive [inhibitor, single point]. With CNC(=O)c1nnsc1S(=O)(=O)c1ccc(Cl)cc1 the Potency was inconclusive [inhibitor, single point]. With CN(C)S(=O)(=O)c1cccc(NC(=O)c2cc3ccccc3o2)c1 the Potency was inconclusive [inhibitor, single point]. For CCC(CO)Oc1cc(NC(=O)c2cccc(F)c2)c2ncn(C(C)C)c2c1 (configuration not stated), the Potency was active: 0.562 µM. For O=C(CC1SC(=Nc2ccccc2)N(Cc2ccccn2)C1=O)Nc1ccc(Br)cc1 (configuration not stated), the Potency was inconclusive [inhibitor, single point]. With CC1=C(C(=O)OCC2CCCO2)C(c2ccc(C)o2)C2=C(CC(c3ccc(F)cc3)CC2=O)N1 (configuration not stated) the Potency was active: 8.91 µM. For CCN(CC)CC1CN(N=Cc2ccc([N+](=O)[O-])o2)C(=O)O1 (configuration not stated), the Potency was inconclusive [inhibitor, single point]. With CCCN(CCC)CCCOC(=O)c1ccc(Cl)cc1Cl the Potency was inconclusive [inhibitor, single point]. In the case of COc1ccc(NC(=O)OCCn2c([N+](=O)[O-])cnc2C)cc1, the “activity change, negative = inhibition” value is reported as inactive: 9.98%. In the case of CCOC(=O)/C=C/C(=O)Nc1cc(S(=O)(=O)Nc2ccc(OC)cc2)ccc1N1CCOCC1, the Potency is reported as inconclusive [inhibitor, single point]. In the case of COc1ccccc1/C=C/C=N/NC(=O)c1ccco1, the “activity change, negative = inhibition” value is reported as inactive: -6.26%. In the case of Cc1occc1-c1nnc(SCC(=O)c2ccccc2)n1CC1CCCO1 (configuration not stated), the Potency is reported as inconclusive [inhibitor, partial curve]. In the case of COc1ccc2nc(NC(=O)C3CCCN3S(=O)(=O)c3ccc(C)cc3)sc2c1 (configuration not stated), the Potency is reported as inconclusive [inhibitor, single point]. In the case of Cc1[nH]c2ccccc2c1/C=C(\C#N)C(=O)NCc1ccccc1, the Potency is reported as inconclusive [inhibitor, single point]. For Cc1occc1C(=O)Nc1cccc(C(=O)NCc2ccccc2)c1, the Potency was inconclusive [inhibitor, partial curve]. In the case of COc1ccc([N+](=O)[O-])cc1NC(=O)Nc1ccccc1, the Potency is reported as inconclusive [inhibitor, single point]. With COC(=O)c1c(NC(=O)c2ccc(Br)s2)sc2c1CCC2 the Potency was inconclusive [inhibitor, partial curve, poor fit]. In the case of CC(Oc1nc2c(c(=O)n(C)c(=O)n2C)n1C)C1CCCCC1 (configuration not stated), the Potency is reported as inconclusive [inhibitor, partial curve]. With Nc1c(N2CCCC2)c2ccccc2oc1=O the “activity change, negative = inhibition” value was inactive: -10.7%. With CCOc1ccc(S(=O)(=O)N(C)c2ccc(OCC(=O)N3c4ccc(C)cc4C4CN(C)CCC43)cc2)cc1 (configuration not stated) the Potency was inconclusive [inhibitor, partial curve]. With COc1ccc(/C=N/Nc2ncnc3scc(-c4ccccc4)c23)cc1OC the Potency was inconclusive [inhibitor, full curve, poor fit].
